This is one part of the list. Many values rest on one well or one pass, so single values are uncertain.

Results on 23 compounds are retold here after the supplement of paper PMC4604168 (melanoma cell lines).

Among the test systems are WM115; WM1716; WM1745; WM3526; WM3619; WM451Lu.
Holding throughout (test): cell count relative to DMSO control; melanoma cells; higher = more viable cells
Holding throughout (conditions): library dose: low library concentration; 72 h
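Further: cell number obtained by counting DAPI-stained nuclei in high-throughput microscope images with image analysis software, screen run in 1,536-well plates.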

On to `O=C(/C=C/c1cccnc1)NCCCCC1CCN(C(=O)c2ccccc2)CC1` + OCc1c[nH]c2ccccc12 [Indole-3-carbinol] (first compound 0.01 µM, partner dose 0.8 µM), for which the cell count in the experiment with WM115 stood at 95.2%; in the experiment with WM1716 it was 95.1%; with WM1745, 103%; with WM3526, 98.5%; in the experiment with WM3619, 85.4%; in the experiment on WM451Lu it was 110%.
Turning to `O=C(/C=C/c1cccnc1)NCCCCC1CCN(C(=O)c2ccccc2)CC1` + COc1ccc(-c2ccc3c(N4CCOCC4)nc(N4C[C@@H](C)O[C@@H](C)C4)nc3n2)cc1CO [KU0063794] (first compound 0.01 µM, partner dose 0.02 µM), the cell count in the experiment on WM115 is 89.2%; with WM1716, 94.5%; in the experiment on WM1745 it was 114%; in the experiment with WM3526, 93.7%; in the experiment with WM3619, 90.5%; with WM451Lu it was 67%.
For the compound `CC1(C)CCC(c2ccc(Cl)cc2)=C(CN2CCN(c3ccc(C(=O)NS(=O)(=O)c4ccc(N[C@H](CCN5CCOCC5)CSc5ccccc5)c(S(=O)(=O)C(F)(F)F)c4)cc3)CC2)C1` + O=S(=O)(c1ccccc1)N(CC(F)(F)F)c1ccc(C(O)(C(F)(F)F)C(F)(F)F)cc1 [T0901317] (first compound 0.4 µM, partner dose 1.4 µM), the cell count turned out to be 76.9% in the experiment with WM115; 60.2% in the experiment with WM1716; 17.4% with WM1745; 80.9% with WM3526; 77.6% with WM3619; 97.3% with WM451Lu.
As for `O=C(/C=C/c1cccnc1)NCCCCC1CCN(C(=O)c2ccccc2)CC1` + C#Cc1cccc(Nc2ncnc3cc(OCCOC)c(OCCOC)cc23)c1 [erlotinib] (first compound 0.01 µM, partner dose 0.8 µM), the cell count with WM115 amounted to 94.8%; with WM1716, 93%; with WM1745, 76.7%; in the experiment with WM3526, 107%; with WM3619, 93.7%; in the experiment on WM451Lu, 104%.
For `CC1(C)CCC(c2ccc(Cl)cc2)=C(CN2CCN(c3ccc(C(=O)NS(=O)(=O)c4ccc(N[C@H](CCN5CCOCC5)CSc5ccccc5)c(S(=O)(=O)C(F)(F)F)c4)cc3)CC2)C1` + COc1ccc(-c2ccc3c(N4CCOCC4)nc(N4C[C@@H](C)O[C@@H](C)C4)nc3n2)cc1CO [KU0063794] (first compound 0.4 µM, partner dose 0.02 µM), the cell count was found to be 77.3% in the experiment with WM115; 47.2% in the experiment on WM1716; 8.6% with WM1745; 86.9% with WM3526; 77% with WM3619; 79.7% in the experiment with WM451Lu.
On to `O=C(/C=C/c1cccnc1)NCCCCC1CCN(C(=O)c2ccccc2)CC1` + CC(=O)O[C@@]12CO[C@@H]1C[C@H](O)[C@@]1(C)C(=O)[C@H](O)C3=C(C)[C@@H](OC(=O)[C@H](O)[C@@H](NC(=O)OC(C)(C)C)c4ccccc4)C[C@@](O)([C@@H](OC(=O)c4ccccc4)[C@H]21)C3(C)C [Docetaxel] (first compound 0.01 µM, partner dose 0.0001 µM), for which the cell count came out at 77.6% with WM115; 36.3% with WM1716; 55.6% in the experiment on WM1745; 46.9% with WM3526; 67.1% in the experiment with WM3619; 53.8% in the experiment with WM451Lu.
For the compound `Cc1ccc(Nc2nccc(N(C)c3ccc4c(C)n(C)nc4c3)n2)cc1S(N)(=O)=O` [Pazopanib] + CO[C@H]1C[C@@H]2CC[C@@H](C)[C@@](O)(O2)C(=O)C(=O)N2CCCC[C@H]2C(=O)O[C@H]([C@H](C)C[C@@H]2CC[C@@H](OCCO)[C@H](OC)C2)CC(=O)[C@H](C)/C=C(\C)[C@@H](O)[C@@H](OC)C(=O)[C@H](C)C[C@H](C)/C=C/C=C/C=C/1C [everolimus] (first compound 0.4 µM, partner dose 0.02 µM), the cell count in the experiment on WM115 is 81.2%; with WM1716, 64.8%; in the experiment with WM1745, 95.5%; with WM3526, 70.9%; with WM3619, 77.9%; with WM451Lu, 85%.
Consider `O=C(/C=C/c1cccnc1)NCCCCC1CCN(C(=O)c2ccccc2)CC1` + OCCn1cc(-c2cnc3nnn(Cc4ccc5ncccc5c4)c3n2)cn1 [PF04217903] (first compound 0.01 µM, partner dose 1 µM), for which the cell count in the experiment with WM115 stood at 93.5%; with WM1716, 95.9%; in the experiment on WM1745 it was 120%; in the experiment with WM3526, 94.5%; in the experiment with WM3619, 117%; with WM451Lu, 94.8%.
For `CC1(C)CCC(c2ccc(Cl)cc2)=C(CN2CCN(c3ccc(C(=O)NS(=O)(=O)c4ccc(N[C@H](CCN5CCOCC5)CSc5ccccc5)c(S(=O)(=O)C(F)(F)F)c4)cc3)CC2)C1` + C=CCNC1=C2C[C@@H](C)C[C@H](OC)[C@H](O)[C@@H](C)/C=C(\C)[C@H](OC(N)=O)[C@@H](OC)/C=C\C=C(/C)C(=O)NC(=CC1=O)C2=O [Tanespimycin] (first compound 0.4 µM, partner dose 0.002 µM), the cell count in the experiment on WM115 amounted to 77.5%; in the experiment on WM1716, 74.5%; with WM1745, 11%; in the experiment on WM3526, 90.9%; in the experiment on WM3619 it was 84.1%; in the experiment with WM451Lu it was 80.3%.
For `Cc1ccc(Nc2nccc(N(C)c3ccc4c(C)n(C)nc4c3)n2)cc1S(N)(=O)=O` [Pazopanib] + C=C(c1ccc(C(=O)O)cc1)c1cc2c(cc1C)C(C)(C)CCC2(C)C [Bexarotene] (first compound 0.4 µM, partner dose 2 µM), the cell count with WM115 came to 104%; in the experiment with WM1716 it was 77.3%; in the experiment with WM1745, 95.7%; in the experiment with WM3526, 78.6%; in the experiment with WM3619 it was 111%; with WM451Lu, 85.7%.
Regarding `O=C(/C=C/c1cccnc1)NCCCCC1CCN(C(=O)c2ccccc2)CC1` + C[C@@H]1CCN(C(=O)CC#N)C[C@@H]1N(C)c1ncnc2[nH]ccc12 [CP690550] (first compound 0.01 µM, partner dose 1 µM), the cell count worked out at 88.5% in the experiment with WM115; 86% with WM1716; 88% in the experiment with WM1745; 80.2% in the experiment with WM3526; 74.4% in the experiment on WM3619; 101% with WM451Lu.
On to `Cc1ccc(Nc2nccc(N(C)c3ccc4c(C)n(C)nc4c3)n2)cc1S(N)(=O)=O` [Pazopanib] + Oc1nc(-c2ccc(C(F)(F)F)cc2)nc2c1CSCC2 [XAV939] (first compound 0.4 µM, partner dose 2 µM), for which the cell count was found to be 94.7% in the experiment on WM115; 48.5% in the experiment on WM1716; 84.4% in the experiment on WM1745; 90.8% in the experiment with WM3526; 64.3% in the experiment on WM3619; 84.2% in the experiment on WM451Lu.
Turning to `O=C(/C=C/c1cccnc1)NCCCCC1CCN(C(=O)c2ccccc2)CC1` + CCCCCCCCc1ccc(CCC(N)(CO)CO)cc1 [fingolimod] (first compound 0.01 µM, partner dose 2 µM), the cell count in the experiment with WM115 came to 93.8%; in the experiment with WM1716, 70.7%; with WM1745, 92.2%; in the experiment on WM3526, 90.2%; in the experiment on WM3619, 70.7%; in the experiment with WM451Lu, 111%.
For the compound `CC1(C)CCC(c2ccc(Cl)cc2)=C(CN2CCN(c3ccc(C(=O)NS(=O)(=O)c4ccc(N[C@H](CCN5CCOCC5)CSc5ccccc5)c(S(=O)(=O)C(F)(F)F)c4)cc3)CC2)C1` + NC(=O)c1ccc(N(C(N)=O)c2c(F)cccc2F)nc1-c1ccc(F)cc1F [VX702] (first compound 0.4 µM, partner dose 0.4 µM), the cell count in the experiment on WM115 amounted to 91.8%; with WM1716, 75.4%; with WM1745, 11.7%; in the experiment with WM3526, 84.6%; in the experiment with WM3619 it was 74.2%; in the experiment with WM451Lu, 85.3%.
Turning to `Cc1ccc(Nc2nccc(N(C)c3ccc4c(C)n(C)nc4c3)n2)cc1S(N)(=O)=O` [Pazopanib] + O=C(O)c1ccc(-c2c[nH]c3ncc(-c4ccccc4)cc23)cc1C1CCCC1 [GSK650394] (first compound 0.4 µM, partner dose 0.16 µM), the cell count in the experiment with WM115 came to 106%; in the experiment on WM1716, 97.7%; with WM1745 it was 111%; with WM3526, 83.7%; in the experiment with WM3619 it was 109%; in the experiment with WM451Lu, 89.8%.
Turning to `O=C(/C=C/c1cccnc1)NCCCCC1CCN(C(=O)c2ccccc2)CC1` + CCN(CC)CCCCNc1ncc2cc(-c3cc(OC)cc(OC)c3)c(NC(=O)NC(C)(C)C)nc2n1 [PD173074] (first compound 0.01 µM, partner dose 0.1 µM), the cell count with WM115 stood at 90.3%; in the experiment with WM1716, 102%; with WM1745, 104%; in the experiment on WM3526, 98.5%; with WM3619, 100%; in the experiment with WM451Lu it was 104%.
As to `O=C(/C=C/c1cccnc1)NCCCCC1CCN(C(=O)c2ccccc2)CC1` + CC(C)CCN1c2nc(Nc3cc(F)c(O)c(F)c3)ncc2N(C)C(=O)C1C [BID1870] (first compound 0.01 µM, partner dose 0.2 µM), the cell count with WM115 was 89.5%; in the experiment with WM1716, 108%; with WM1745, 106%; in the experiment with WM3526 it was 110%; in the experiment with WM3619, 98.6%; in the experiment with WM451Lu, 116%.
Consider `Cc1ccc(Nc2nccc(N(C)c3ccc4c(C)n(C)nc4c3)n2)cc1S(N)(=O)=O` [Pazopanib] + C=CCn1c(=O)c2cnc(Nc3ccc(N4CCN(C)CC4)cc3)nc2n1-c1cccc(C(C)(C)O)n1 [MK1775] (first compound 0.4 µM, partner dose 0.02 µM), for which the cell count came out at 77.7% in the experiment on WM115; 89.5% in the experiment on WM1716; 89.3% in the experiment with WM1745; 78.6% in the experiment with WM3526; 82.5% in the experiment with WM3619; 82.5% with WM451Lu.
As for `O=C(/C=C/c1cccnc1)NCCCCC1CCN(C(=O)c2ccccc2)CC1` + NC(=O)c1ccc(N(C(N)=O)c2c(F)cccc2F)nc1-c1ccc(F)cc1F [VX702] (first compound 0.01 µM, partner dose 0.4 µM), the cell count is 94.9% with WM115; 95.2% with WM1716; 92.7% with WM1745; 93.3% in the experiment with WM3526; 70.6% with WM3619; 82.3% with WM451Lu.
`CC1(C)CCC(c2ccc(Cl)cc2)=C(CN2CCN(c3ccc(C(=O)NS(=O)(=O)c4ccc(N[C@H](CCN5CCOCC5)CSc5ccccc5)c(S(=O)(=O)C(F)(F)F)c4)cc3)CC2)C1` + CC(C)(C)c1cnc(CSc2cnc(NC(=O)C3CCNCC3)s2)o1 [SNS-032] (first compound 0.4 µM, partner dose 0.01 µM): the cell count was 88.4% in the experiment with WM115; 85.2% in the experiment on WM1716; 16.3% with WM1745; 110% with WM3526; 78.8% in the experiment on WM3619; 77.8% in the experiment with WM451Lu.
On to `O=C(/C=C/c1cccnc1)NCCCCC1CCN(C(=O)c2ccccc2)CC1` + C=CCn1c(=O)c2cnc(Nc3ccc(N4CCN(C)CC4)cc3)nc2n1-c1cccc(C(C)(C)O)n1 [MK1775] (first compound 0.01 µM, partner dose 0.02 µM), for which the cell count was determined as 77.4% in the experiment on WM115; 79.3% with WM1716; 81.6% in the experiment with WM1745; 117% in the experiment with WM3526; 69% in the experiment on WM3619; 99.8% in the experiment on WM451Lu.
For `O=C(/C=C/c1cccnc1)NCCCCC1CCN(C(=O)c2ccccc2)CC1` + CC1(C)NC(=O)N(c2ccc([N+](=O)[O-])c(C(F)(F)F)c2)C1=O [nilutamide] (first compound 0.01 µM, partner dose 1 µM), the cell count in the experiment on WM115 amounted to 101%; in the experiment on WM1716, 106%; in the experiment with WM1745, 92.3%; in the experiment with WM3526, 67.9%; in the experiment with WM3619, 94.6%; with WM451Lu, 118%.
Consider `Cc1ccc(Nc2nccc(N(C)c3ccc4c(C)n(C)nc4c3)n2)cc1S(N)(=O)=O` [Pazopanib] + Cn1cnc2c(F)c(Nc3ccc(Br)cc3Cl)c(C(=O)NOCCO)cc21 [selumetinib] (first compound 0.4 µM, partner dose 0.015 µM), for which the cell count with WM115 worked out at 101%; with WM1716 it was 109%; in the experiment on WM1745 it was 86.6%; with WM3526, 58.4%; with WM3619, 81.2%; in the experiment on WM451Lu, 129%.
